Experimental data: ChEMBL document CHEMBL4888484, “Replenishing the malaria drug discovery pipeline: Screening and hit evaluation of the MMV Hit Generation Library 1 (HGL1) against asexual blood stage Plasmodium falciparum ,using a nano luciferase reporter read-out” (2022)
Screen size: about 150,000 compounds; about 540 (0.36%) showed an effect of 50% or more. The list shows a part of the results. Where a SMILES comes first, the peptide text is derived from it. The star is where a group is joined. Boc = CC(C)(C)OC(=O)*; NHBn = c1ccc(CN*)cc1

tested on: Plasmodium falciparum; experiment: Primary screen in NF54 nanoGlo assay, in single point, at 2uM, 72h; a lower Z score goes with more inhibition; assay type: functional, Erythrocyte; conditions: timepoint 72 hour

Structure (SMILES) | % Inhibition [%] | Z score
Cc1nnc(CN(CCC(F)(F)F)C2CCC2)o1 | 5 | -0.76
CO[C@H]1CCCN(C(=O)c2cc(Cl)ccc2OC2CCN(C3CCCC3)CC2)C1 | -1 | 0.22
CN(Cc1cc(C2CC2)[nH]n1)Cc1ccccc1C(=O)O | -19 | 2.47
Cc1cc(F)cc(-c2c(-c3ccccc3)ncn2Cc2nnc3ccccn23)c1 | 21 | -2.71
O=C(NCc1cccnc1N1CCOCC1)Nc1ccccn1 | -2 | 0.37
COC[C@H]1CCCN1C(=O)c1cc2c(Cl)cccc2[nH]1 | -2 | 0.44
COCCNCCNc1ccc(F)cc1 | -15 | 2.39
CC(C)C1=NO[C@H](c2ncnn2CC(C)(C)O)C1 | 9 | -1.16
COCCN1CCN(c2nc(-c3ccc(F)c(Cl)c3)c3c(N)n(-c4ccccc4Cl)nc3n2)CC1 | -13 | 1.71
CC(Cn1cccn1)NC1CN(C(=O)OCc2ccccc2)C[C@H]1O (stereo partly specified) | 0 | 0.04
CN1CCN(CCC(C)(C)NCc2ccc(Cl)cc2F)CC1 | 1 | -0.27
CC(C)(C)OC(=O)NC(Cc1ccccc1)C(=O)N1CCCC1C(=O)NCc1ccccc1 (stereo not drawn) (Boc-Phe-Pro-NHBn; configuration not given here) | 10 | -0.93
Cc1oc2ccccc2c1CCNC(=O)N1CCC(C(F)(F)F)C(CN)C1 (stereo unspecified) | -3 | 0.31
Cc1cc(F)ccc1CC(=O)N[C@H]1CC[C@@H]2CCC[C@@H]21 | -10 | 1.08
Cc1ccn(CCc2ccc3c(c2)CCO3)c(=O)c1C#N | -18 | 1.54
CCCNc1ncc(CN2CCn3nc(C#N)cc3C2)cn1 | -8 | 1.39
NC(=O)[C@H]1CCN(C(=O)Nc2nc(-c3ccccc3)cs2)C1 | -2 | 0.37
Cc1cc(OCc2cc(C(=O)N(Cc3nccn3C)C(C)C)no2)cc(C)c1Cl | -16 | 2.71
Cc1ccsc1-c1nccn1-c1ccc2[nH]nnc2c1 | 1 | -0.13
CC[C@@H](C(=O)N(CC)Cc1nn(-c2ccccc2)c2c1CN(Cc1cc(F)ccc1F)CC2)c1ccccc1 | -5 | 0.74
Cc1cccc(CN2CCN(Cc3cccc4cccnc34)C[C@@H]2CCO)n1 | -17 | 1.55

Structure (SMILES) | % Inhibition [%] | Z score
CC(CC(=O)N1CC(C)OCC1c1ccccc1)NC(=O)C1CCCC1 (stereo unspecified) | -3 | 0.3
O=c1c2cccn2cnn1CCCOCc1ccccc1 | -18 | 2.33
C[C@H](NC(=O)NCC1CCCC1)C1CC1 | 10 | -1.69
Cc1ccc(NC(=O)N2CCC[C@H](Cn3cnc4cccnc43)C2)c(C)c1 | -11 | 1.61
O=C(Nc1nc2cc3c(cc2s1)OCCO3)c1ccc(S(=O)(=O)N2CCCCCC2)cc1 | -13 | 2.43
Cc1ccc(CN2C[C@H](OC(C)C)[C@@H](O)C2)s1 | -9 | 1.29
O=C(Cc1nnc(-c2cnccn2)o1)Nc1cc(F)ccc1F | -11 | 1.08
CC1(C(=O)NC2CCCCCC2)Cn2c(nc3ccccc32)C(=O)N1CC1CCCO1 (stereo unspecified) | -17 | 1.61
COC(=O)c1cccc2nc([C@H]3CCN(C4CCOCC4)C3)oc12 | 11 | -1.22
CC(C)CCN(CCC(=O)N1CCNCC1)C(=O)c1ccc(F)c(Cl)c1 | -3 | 0.36
CC(C)Oc1ccc2c(NC(=O)[C@@H]3CCCC(=O)N3)nn(CC(F)(F)F)c2c1 | -7 | 0.84
COc1ncc(CNc2c(F)cccc2NC(C)C)c(C)n1 | 2 | -0.23
CN1CC[C@@]2(CCC1=O)CN(C(=O)CCc1ccsc1)CCN2C | -18 | 2.27
CO[C@H]1[C@H](NC(=O)Cc2ccccc2)c2ccccc2C12CCNCC2 | -6 | 1.03
C[C@H](O)c1cccc(-c2ccccc2CN2CCOCC2)n1 | -7 | 1.3
COc1ccccc1OC[C@@H](C)CNC(=O)N1CCC1 | -1 | 0.18
Cn1c(NC(=O)c2cccs2)c(-c2ccc(Cl)cc2)c(=O)c2ccccc21 | 0 | 0.04
O=C1CC2C(=O)CC1C1C(=O)N(c3ccc(Cl)c(Cl)c3)C(=O)C21 (stereo unspecified) | -3 | 0.32
O=C(NC[C@H](O)COc1cccc(Cl)c1Cl)c1c(F)c(F)cc(F)c1F | 6 | -0.88
CN(Cc1cccs1)c1nn2cc(C(C)(C)C)nc2s1 | -3 | 0.31
COc1ccccc1OCc1ccc(C(=O)NC2CCCCC2)cc1 | -35 | 4.08

Structure (SMILES) | % Inhibition [%] | Z score
CN1C[C@]2(CCN(Cc3nc(-c4ccc(Cl)cc4)no3)C2)OC1=O | -1 | 0.1
CC(C)(C)OC(=O)N[C@H](CO)Cc1c[nH]cn1 | -2 | 0.42
Nc1cccc(COCC(F)(F)C(F)F)c1 | 1 | -0.09
Cc1c(C(=O)NC2CCCC2)sc2ncnc(N(C)CCc3ccccn3)c12 | -6 | 1.12
O=C(Cn1cnccc1=O)NCC1(N2CCOCC2)CCCCC1 | 10 | -1.39
Cc1csc(C(C)(C)NC(=O)NCCC2=CCCC2)n1 | 36 | -4.89
CC(C)CC(=O)N1CC[C@H](CC(=O)N(C)Cc2ccccc2)C1 | -2 | 0.3
O=C(NCc1ccccc1OC1CCC1)c1ccc2nncn2c1 | -1 | 0.11
COc1ncnc(N)c1CNCC[C@H]1CCCO1 | -5 | 0.72
Cc1cc(C)cc(NC(=O)CN2CCC(C(=O)N3CCn4c3nc3ccccc34)CC2)c1 | -13 | 1.48
Cc1cc(-c2noc(CNC(=O)CN3CCOC3=O)n2)no1 | 11 | -1.36
CC12CCC(C(=O)N(c3cccc(S(=O)(=O)O)c3)C1=O)C2(C)C (stereo unspecified) | -19 | 2.7
C[C@@H](c1ccncc1)N(C)Cc1cnc2c(-c3ccccc3)cnn2c1 | -20 | 2.58
Cc1cc(COCC(=O)N2CCN(C)c3ccc(Cl)cc32)no1 | -5 | 0.85
Cc1nnsc1CN1CC[C@](C)(O)[C@H](O)C1 | -7 | 1.37
CC(C)(C)c1cc2n(n1)C[C@@](C)(C(=O)NC1CCCCCCC1)N(c1ccc(F)cc1)C2=O | -13 | 2.04
N[C@@H](C(=O)NCc1cc2n(n1)CCN(C1CCCCC1)C2)c1ccccc1 | -8 | 1.48
Cc1n[nH]c(C)c1CCN(C)c1cc([C@H]2CCOC2)nc(N2CC(O)C2)n1 | -2 | 0.24
CN(C)c1cccc(CN2CCCc3c(cnn3C)C2)c1 | -6 | 1.07
O=C(c1cc2c(s1)CCCCC2)N1Cc2cnn(CCO)c2C1 | -3 | 0.29
COC(=O)C1C2CCC(C2)C1NC(=O)c1cccnc1C (stereo unspecified) | 0 | -0.02

Structure (SMILES) | % Inhibition [%] | Z score
COc1ncc(-c2nc(-c3ccccc3Cl)no2)cn1 | 9 | -1.07
OCCN(Cc1cnc(C2CC2)o1)c1ccccc1 | -5 | 0.49
C#CCOc1ccccc1OC(=O)Cc1c(C)noc1C | 6 | -0.99
COC1CCC(NC(=O)C2CCC(=O)N2)C1 (stereo unspecified) | -11 | 1.25
Cc1ccc(CN2C[C@@H](F)C[C@H]2C(=O)N2CCCN(C)CC2)cc1 | -14 | 1.8
Cn1ccnc1CC(NC(=O)N1CCCC(OC2CCC2)C1)c1ccccc1 (stereo unspecified) | 4 | -0.69
Cc1nc(-c2csc(S(=O)(=O)NCCN3CCCC3)c2)sc1C(=O)N1CCCC1 | -14 | 1.97
CCOc1ccc(-n2nc(CO)c(C(=O)NCc3ccccn3)n2)cc1 | -17 | 3.08
Nc1nccnc1C(=O)N(Cc1ccoc1)C1CCCCC1 | 4 | -0.64
Cc1ccc(F)cc1NS(=O)(=O)c1cc(-c2nc(C(C)(C)C)cs2)cs1 | -10 | 1.5
CN1CC2(CCN(C(=O)Cc3c[nH]c4ccccc34)CC2)C[C@H]1C(=O)N1CCOCC1 | 3 | -0.5
C[C@H](CCC(=O)N1CCCC1)[C@H]1CC[C@H]2[C@@H]3[C@@H](O)C[C@@H]4C[C@H](O)CC[C@]4(C)[C@H]3CC[C@]12C | -3 | 0.36
Cc1c(CNC(=O)c2ncoc2C(C)(C)C)cnn1C | -2 | 0.29
O=C1OC(N2C(=O)CC[C@H]2C(=O)NC2CCS(=O)(=O)C2)c2ccccc21 (stereo partly specified) | -4 | 0.72
Cc1cccc2c1O[C@H](C(=O)N1CC(C)(CC(F)(F)F)C1)C2 | -10 | 1.31
CCN(CC)[C@@]1(c2nnnn2C2CCCC2)CCN(C(=O)C2(C)CCCCC2)C1 | -20 | 2.67
Cc1ccc(CN(CCc2c[nH]c3ccccc23)Cc2nc(C(=O)NCC(C)C)co2)c(C)c1 | -5 | 1.02
COC(=O)Nc1ccccc1OCc1ncoc1C(C)C | -4 | 0.52
O=C(Nc1nc2c(s1)CN(Cc1ccccc1)CC2)c1ccc2c(c1)CCCC2 | 24 | -2.99
CCC(CC)C1CC(NCc2csnn2)CCO1 (stereo unspecified) | 4 | -0.58
